Reference: the supplement of paper PMC7125110
± gives the standard error. Variants at the background level are over-represented here.

B1: glmS ribozyme (parent)
chain: AUAAAAGCGCCAGAACUACAGAAAUGUAGUUGACGAGGAGGAGGUUUAUCGAAUUUUCGGCGGAUGCCUCCAAA

Tests used:
Conditions in all cases: with glucosamine-6-phosphate
[1] = variants of: B1; experiment: self-cleavage kobs at 160 uM GlcN6P; higher = faster cleavage; RNA array
Method in brief: (§1)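 Sequenced MiSeq chips were the platform: E. coli RNA polymerase transcribed barcoded ribozyme variants on them in situ, and a hybridised Cy3 probe tracked these at 37 °C. After glucosamine-6-phosphate (40 μM to 10 mM) in HEPES/KCl/Mg(OAc)2 buffer was flowed in, tiles were imaged over ~14 h. Signals normalised to baseline and to non-cleaving reference variants were reduced to per-tile medians and fit to one- or two-exponential decays to obtain kobs. kcat and KM were derived through weighted Michaelis–Menten fits across concentrations.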

[2] = variants of: B1; experiment: self-cleavage kobs at 2500 uM GlcN6P; higher = faster cleavage; RNA array
Method in brief: as §1

[3] = variants of: B1; experiment: self-cleavage kobs at 640 uM GlcN6P; higher = faster cleavage; RNA array
Method in brief: as §1

[4] = variants of: B1; experiment: self-cleavage kobs at 10000 uM GlcN6P; higher = faster cleavage; RNA array
Method in brief: as §1

## A42C A52U
[1]
  self-cleavage kobs at 160 uM GlcN6P: < 1e-05 s⁻¹

## A15U G41A G51A A52C C67A
[1]
  self-cleavage kobs at 160 uM GlcN6P: < 1e-05 s⁻¹
[2]
  self-cleavage kobs at 2500 uM GlcN6P: < 1e-05 s⁻¹

## G7A A15U U46G
[2]
  self-cleavage kobs at 2500 uM GlcN6P: < 1e-05 s⁻¹

## C50A A52U
[3]
  self-cleavage kobs at 640 uM GlcN6P: < 1e-05 s⁻¹
[1]
  self-cleavage kobs at 160 uM GlcN6P: < 1e-05 s⁻¹
[2]
  self-cleavage kobs at 2500 uM GlcN6P: < 1e-05 s⁻¹
[4]
  self-cleavage kobs at 10000 uM GlcN6P: < 1e-05 s⁻¹

## G40A C50U G51A G63A U65A
[3]
  self-cleavage kobs at 640 uM GlcN6P: < 1e-05 s⁻¹
[1]
  self-cleavage kobs at 160 uM GlcN6P: < 1e-05 s⁻¹
[2]
  self-cleavage kobs at 2500 uM GlcN6P: < 1e-05 s⁻¹

## G44A U65C
[3]
  self-cleavage kobs at 640 uM GlcN6P: < 1e-05 s⁻¹

## A6U A42C G60U
[1]
  self-cleavage kobs at 160 uM GlcN6P: < 1e-05 s⁻¹
[2]
  self-cleavage kobs at 2500 uM GlcN6P: < 1e-05 s⁻¹

## G43C C50G C67U
[1]
  self-cleavage kobs at 160 uM GlcN6P: < 1e-05 s⁻¹

## A33C U46A C67G C70G
[1]
  self-cleavage kobs at 160 uM GlcN6P: < 1e-05 s⁻¹
[2]
  self-cleavage kobs at 2500 uM GlcN6P: < 1e-05 s⁻¹

## U46G U65C
[1]
  self-cleavage kobs at 160 uM GlcN6P: < 1e-05 s⁻¹

## G40A G41C
[3]
  self-cleavage kobs at 640 uM GlcN6P: 4.87e-05 ± 1.8e-05 s⁻¹
[2]
  self-cleavage kobs at 2500 uM GlcN6P: 0.000179 ± 4.9e-05 s⁻¹
[4]
  self-cleavage kobs at 10000 uM GlcN6P: 0.000123 ± 1.4e-05 s⁻¹

## G40A G41A
[3]
  self-cleavage kobs at 640 uM GlcN6P: 6.83e-05 ± 1.2e-05 s⁻¹
[2]
  self-cleavage kobs at 2500 uM GlcN6P: 0.000163 ± 2.3e-05 s⁻¹

## A33U U47C G63U
[1]
  self-cleavage kobs at 160 uM GlcN6P: < 1e-05 s⁻¹
[2]
  self-cleavage kobs at 2500 uM GlcN6P: < 1e-05 s⁻¹

## C58G A64C C67U
[3]
  self-cleavage kobs at 640 uM GlcN6P: 7.21e-05 ± 2e-05 s⁻¹

## A36U A42G U49A G51A
[3]
  self-cleavage kobs at 640 uM GlcN6P: < 1e-05 s⁻¹

## G13C A14U G32A
[1]
  self-cleavage kobs at 160 uM GlcN6P: 0.000741 ± 0.00017 s⁻¹

## G43U G59A G60A C71A
[3]
  self-cleavage kobs at 640 uM GlcN6P: < 1e-05 s⁻¹
[2]
  self-cleavage kobs at 2500 uM GlcN6P: < 1e-05 s⁻¹

## A6G U47G A48G U56G
[2]
  self-cleavage kobs at 2500 uM GlcN6P: < 1e-05 s⁻¹

## G59C C71G
[1]
  self-cleavage kobs at 160 uM GlcN6P: < 1e-05 s⁻¹

## A48U A53C C68G C71G
[3]
  self-cleavage kobs at 640 uM GlcN6P: 9.77e-05 ± 3.4e-05 s⁻¹

## A36U C61G C70G
[3]
  self-cleavage kobs at 640 uM GlcN6P: 9.55e-05 ± 2.6e-05 s⁻¹
[1]
  self-cleavage kobs at 160 uM GlcN6P: 6.28e-05 ± 2.3e-05 s⁻¹

## A15U U57A C61U U65G
[1]
  self-cleavage kobs at 160 uM GlcN6P: < 1e-05 s⁻¹
[2]
  self-cleavage kobs at 2500 uM GlcN6P: < 1e-05 s⁻¹

## G44C U69A
[3]
  self-cleavage kobs at 640 uM GlcN6P: < 1e-05 s⁻¹
[1]
  self-cleavage kobs at 160 uM GlcN6P: < 1e-05 s⁻¹
[2]
  self-cleavage kobs at 2500 uM GlcN6P: < 1e-05 s⁻¹
[4]
  self-cleavage kobs at 10000 uM GlcN6P: < 1e-05 s⁻¹

## G13C C58G
[1]
  self-cleavage kobs at 160 uM GlcN6P: < 1e-05 s⁻¹

## G40C G44U
[3]
  self-cleavage kobs at 640 uM GlcN6P: < 1e-05 s⁻¹
[1]
  self-cleavage kobs at 160 uM GlcN6P: < 1e-05 s⁻¹
[2]
  self-cleavage kobs at 2500 uM GlcN6P: < 1e-05 s⁻¹

## U31G G44U G51U
[1]
  self-cleavage kobs at 160 uM GlcN6P: < 1e-05 s⁻¹

## C61A C67A
[3]
  self-cleavage kobs at 640 uM GlcN6P: 5.15e-05 ± 1.8e-05 s⁻¹
[1]
  self-cleavage kobs at 160 uM GlcN6P: 5.31e-05 ± 1.5e-05 s⁻¹

## A39G G44C
[3]
  self-cleavage kobs at 640 uM GlcN6P: 0.000101 ± 1.9e-05 s⁻¹
[2]
  self-cleavage kobs at 2500 uM GlcN6P: 0.000327 ± 6.4e-05 s⁻¹
[4]
  self-cleavage kobs at 10000 uM GlcN6P: 0.000394 ± 4.8e-05 s⁻¹

## G38A A42G G43U
[3]
  self-cleavage kobs at 640 uM GlcN6P: < 1e-05 s⁻¹
[2]
  self-cleavage kobs at 2500 uM GlcN6P: < 1e-05 s⁻¹

## G44A G51U A64U
[3]
  self-cleavage kobs at 640 uM GlcN6P: < 1e-05 s⁻¹
[1]
  self-cleavage kobs at 160 uM GlcN6P: < 1e-05 s⁻¹
[2]
  self-cleavage kobs at 2500 uM GlcN6P: < 1e-05 s⁻¹

## C11A A52U U54A C58A G59U G63C
[1]
  self-cleavage kobs at 160 uM GlcN6P: < 1e-05 s⁻¹
[2]
  self-cleavage kobs at 2500 uM GlcN6P: < 1e-05 s⁻¹

## G9C G43C
[1]
  self-cleavage kobs at 160 uM GlcN6P: < 1e-05 s⁻¹
[2]
  self-cleavage kobs at 2500 uM GlcN6P: < 1e-05 s⁻¹

## C10G U47G G60U
[1]
  self-cleavage kobs at 160 uM GlcN6P: < 1e-05 s⁻¹

## G41A G51C A64C
[3]
  self-cleavage kobs at 640 uM GlcN6P: < 1e-05 s⁻¹

## G38C G59U
[3]
  self-cleavage kobs at 640 uM GlcN6P: < 1e-05 s⁻¹
[1]
  self-cleavage kobs at 160 uM GlcN6P: < 1e-05 s⁻¹

## A6U G13A C34A U57G
[1]
  self-cleavage kobs at 160 uM GlcN6P: < 1e-05 s⁻¹
[2]
  self-cleavage kobs at 2500 uM GlcN6P: < 1e-05 s⁻¹

## C58A C71U
[3]
  self-cleavage kobs at 640 uM GlcN6P: 7.43e-05 ± 7.2e-06 s⁻¹
[1]
  self-cleavage kobs at 160 uM GlcN6P: 4.42e-05 ± 1.2e-05 s⁻¹
[2]
  self-cleavage kobs at 2500 uM GlcN6P: 0.000183 ± 1.6e-05 s⁻¹

## A6G G32U C50G U57G C61A G66U
[1]
  self-cleavage kobs at 160 uM GlcN6P: 0.000258 ± 4.1e-05 s⁻¹
[2]
  self-cleavage kobs at 2500 uM GlcN6P: 0.000553 ± 9.8e-05 s⁻¹
[4]
  self-cleavage kobs at 10000 uM GlcN6P: 9.54e-05 ± 1.9e-05 s⁻¹

## U47C U49G
[3]
  self-cleavage kobs at 640 uM GlcN6P: 6.46e-05 ± 1.7e-05 s⁻¹
[2]
  self-cleavage kobs at 2500 uM GlcN6P: 0.000146 ± 3.2e-05 s⁻¹
[4]
  self-cleavage kobs at 10000 uM GlcN6P: 0.000169 ± 3.6e-05 s⁻¹

## A52U G66C
[1]
  self-cleavage kobs at 160 uM GlcN6P: < 1e-05 s⁻¹

## A6C C8U C11U
[1]
  self-cleavage kobs at 160 uM GlcN6P: < 1e-05 s⁻¹
[2]
  self-cleavage kobs at 2500 uM GlcN6P: < 1e-05 s⁻¹

## G7A C16U G29A U31C G60A G62U U69C
[2]
  self-cleavage kobs at 2500 uM GlcN6P: < 1e-05 s⁻¹

## A15G G59A C70U
[1]
  self-cleavage kobs at 160 uM GlcN6P: < 1e-05 s⁻¹

## G7C A15U G63C
[2]
  self-cleavage kobs at 2500 uM GlcN6P: < 1e-05 s⁻¹

## A6U C8G G40C
[2]
  self-cleavage kobs at 2500 uM GlcN6P: < 1e-05 s⁻¹

## G43C U45A C67U
[3]
  self-cleavage kobs at 640 uM GlcN6P: 0.000977 ± 0.00034 s⁻¹
[1]
  self-cleavage kobs at 160 uM GlcN6P: 0.000282 ± 9.2e-05 s⁻¹
[2]
  self-cleavage kobs at 2500 uM GlcN6P: 0.00269 ± 0.00071 s⁻¹

## G35U A36U
[1]
  self-cleavage kobs at 160 uM GlcN6P: < 1e-05 s⁻¹
[2]
  self-cleavage kobs at 2500 uM GlcN6P: < 1e-05 s⁻¹

## U49G G51C C58A
[3]
  self-cleavage kobs at 640 uM GlcN6P: < 1e-05 s⁻¹

## G43A U46A A48C G60A
[3]
  self-cleavage kobs at 640 uM GlcN6P: < 1e-05 s⁻¹
[2]
  self-cleavage kobs at 2500 uM GlcN6P: < 1e-05 s⁻¹

## A36C G41C A64C
[3]
  self-cleavage kobs at 640 uM GlcN6P: < 1e-05 s⁻¹

## G63C C67U
[1]
  self-cleavage kobs at 160 uM GlcN6P: < 1e-05 s⁻¹
[2]
  self-cleavage kobs at 2500 uM GlcN6P: < 1e-05 s⁻¹

## U46A G59A
[1]
  self-cleavage kobs at 160 uM GlcN6P: < 1e-05 s⁻¹
[2]
  self-cleavage kobs at 2500 uM GlcN6P: < 1e-05 s⁻¹
[4]
  self-cleavage kobs at 10000 uM GlcN6P: < 1e-05 s⁻¹

## A12U G29A G41A C58U
[1]
  self-cleavage kobs at 160 uM GlcN6P: < 1e-05 s⁻¹
[2]
  self-cleavage kobs at 2500 uM GlcN6P: < 1e-05 s⁻¹

## G37C U65A
[3]
  self-cleavage kobs at 640 uM GlcN6P: < 1e-05 s⁻¹
[1]
  self-cleavage kobs at 160 uM GlcN6P: < 1e-05 s⁻¹

## U49A U55C C71G
[3]
  self-cleavage kobs at 640 uM GlcN6P: < 1e-05 s⁻¹

## G37A C67G
[1]
  self-cleavage kobs at 160 uM GlcN6P: < 1e-05 s⁻¹

## A12G A53U G63C
[1]
  self-cleavage kobs at 160 uM GlcN6P: < 1e-05 s⁻¹
[4]
  self-cleavage kobs at 10000 uM GlcN6P: < 1e-05 s⁻¹

## A6U A12U G35U G60U
[1]
  self-cleavage kobs at 160 uM GlcN6P: < 1e-05 s⁻¹

## C11U G32U G44A A52U G60U
[1]
  self-cleavage kobs at 160 uM GlcN6P: < 1e-05 s⁻¹
[2]
  self-cleavage kobs at 2500 uM GlcN6P: < 1e-05 s⁻¹

## G7A U56G U65C
[2]
  self-cleavage kobs at 2500 uM GlcN6P: < 1e-05 s⁻¹

## A48G C70G
[3]
  self-cleavage kobs at 640 uM GlcN6P: 8.57e-05 ± 1.8e-05 s⁻¹
[2]
  self-cleavage kobs at 2500 uM GlcN6P: 7.26e-05 ± 1.6e-05 s⁻¹
[4]
  self-cleavage kobs at 10000 uM GlcN6P: 5.25e-05 ± 9.4e-06 s⁻¹
